The assay deals with oncoviruses (M-MuLV, R-MuLV, RSV, RD114, D17, B 95). The conditions noted are these: 3.4 uM to 34 uM. As to the method: The compounds mentioned above were finely powdered and suspended in sterile manner in the solvent dimethylsulfoxide (DMSO). Stock solutions of 10 mg/ml DMSO were prepared and used for preparation of the various dilutions employed for the in-vitro examinations. Dilutions from stock solution were prepared either in phosphate saline buffer (PBS) pH-7.0 or in growth medium--minimal essential medium (Eagle's MEN).
Our experimental results relate to the inhibition of onco-viruses by the described thiosemicarbazone compounds. Different fibroblasts cell-lines, chronically infected with various oncoviruses (see Table 1) were incubated with different concentrations of the thiosemicarbazone compounds. Virus production in drug-treated and untreated cells was followed for 12 hours. Inhibition of virus production was determined by assaying virus reverse transcriptase activity. The inhibition was proportional to drug concentration and time of treatment. Concentrations ranging from 3.4 uM to 34 uM of each of the drugs were tested and found to be effective, giving inhibitions ranging from 20% for the low concentration and an inhibition of 90% in virus production for the 34 uM concentration, after 6 to 9 hours of exposure.

Regarding `CN1C(=O)C(=NNC(N)=S)c2ccccc21` [M-IBT, N-methylisatine 3-thiosemicarbazone], the “effectiveness against oncoviruses in infected fibroblasts” value is on record as “ineffective”.

The record behind these values is US4927843A (priority 1986, dated 1990).
